Test results published in the supplement of paper PMC7826260.
This is one part of the list. The data describe in vitro nicking of single-stranded DNA by Rep domains (3 µM enzyme, 1 h, 37 °C); shown is the middle of each 90-letter strand. Numbers give uncut DNA relative to the enzyme-free pool, as log2; more negative means more cut, near 0 not cut, and no call is made. Counts are relative to all reads; where an enzyme cuts many sequences, the uncut ones exceed 0.

What was measured:
Test in all cases: uncleaved DNA left, log2 of reads against the no-enzyme library (log2 ratio); higher = less cleavage (more negative = more Rep cleavage of the k-mer); sequences stand for … in CTCGTCCG…ACCGGAGA
[1] = tested on: T1, Rep nickase domain of Muscovy duck circovirus
T1 sequence (protein, residues 1-111, tag omitted): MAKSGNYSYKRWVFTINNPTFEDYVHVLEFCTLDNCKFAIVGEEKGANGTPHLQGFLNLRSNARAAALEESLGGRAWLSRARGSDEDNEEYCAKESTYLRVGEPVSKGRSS
Procedure: (§1)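 A pool of 90-nt single-stranded DNAs with seven random bases just before the constant AC of the nick site (name = the seven bases) was cut by 3 µM recombinant His6-SUMO-tagged Rep nickase domain (300 nM DNA, 50 mM HEPES pH 8.0, 50 mM NaCl, 1 mM MnCl2, 1 h, 37 °C, three replicates). Uncut DNA was amplified and sequenced.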

[2] = tested on: T2, Rep nickase domain of banana bunchy top virus
T2 sequence (protein, residues 1-94, tag omitted): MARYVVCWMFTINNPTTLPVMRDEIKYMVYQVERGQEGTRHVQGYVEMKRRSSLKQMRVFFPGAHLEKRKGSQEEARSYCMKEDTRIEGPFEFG
Procedure: as §1

[3] = tested on: T3, Rep nickase domain of cabbage leaf curl virus
T3 sequence (protein, residues 1-116, tag omitted): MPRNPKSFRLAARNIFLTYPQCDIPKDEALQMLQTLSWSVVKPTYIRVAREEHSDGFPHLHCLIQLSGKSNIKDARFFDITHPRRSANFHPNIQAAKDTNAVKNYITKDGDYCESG
Procedure: as §1

[4] = tested on: T4, Rep nickase domain of chickpea chlorotic dwarf virus
T4 sequence (protein, residues 1-124, tag omitted): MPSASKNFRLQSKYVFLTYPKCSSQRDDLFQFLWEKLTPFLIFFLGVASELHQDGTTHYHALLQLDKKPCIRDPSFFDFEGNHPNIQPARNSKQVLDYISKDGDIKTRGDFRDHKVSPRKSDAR
Procedure: as §1

[5] = tested on: T5, Rep nickase domain of faba bean necrotic yellows virus
T5 sequence (protein, residues 1-98, tag omitted): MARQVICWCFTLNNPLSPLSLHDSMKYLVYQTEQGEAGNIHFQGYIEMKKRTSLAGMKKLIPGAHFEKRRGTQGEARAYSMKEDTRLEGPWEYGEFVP
Procedure: as §1

[6] = tested on: T6, Rep nickase domain of maize striate mosaic virus
T6 sequence (protein, residues 1-117, tag omitted): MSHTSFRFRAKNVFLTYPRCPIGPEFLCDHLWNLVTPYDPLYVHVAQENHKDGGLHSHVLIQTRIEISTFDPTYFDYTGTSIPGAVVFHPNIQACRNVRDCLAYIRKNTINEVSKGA
Procedure: as §1

[7] = tested on: T7, Rep nickase domain of porcine circovirus 2
T7 sequence (protein, residues 2-116, tag omitted): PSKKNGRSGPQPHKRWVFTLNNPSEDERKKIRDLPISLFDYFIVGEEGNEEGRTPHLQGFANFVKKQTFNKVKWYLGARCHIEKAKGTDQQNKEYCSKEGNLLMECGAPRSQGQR
Procedure: as §1

[8] = tested on: T8, Rep nickase domain of tomato yellow leaf curl virus
T8 sequence (protein, residues 1-136, tag omitted): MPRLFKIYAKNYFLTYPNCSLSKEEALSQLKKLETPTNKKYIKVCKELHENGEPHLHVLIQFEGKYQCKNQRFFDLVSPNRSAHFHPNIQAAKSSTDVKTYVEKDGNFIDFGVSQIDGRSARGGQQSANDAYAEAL
Procedure: as §1

[9] = tested on: T9, Rep nickase domain of wheat dwarf virus
T9 sequence (protein, residues 1-137, tag omitted): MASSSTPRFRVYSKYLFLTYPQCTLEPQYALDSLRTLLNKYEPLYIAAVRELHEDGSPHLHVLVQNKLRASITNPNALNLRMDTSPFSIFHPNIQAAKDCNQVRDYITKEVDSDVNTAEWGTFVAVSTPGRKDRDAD
Procedure: as §1

Sequence	uncleaved DNA left (log2) [1]	uncleaved DNA left (log2) [2]	uncleaved DNA left (log2) [3]	uncleaved DNA left (log2) [4]	uncleaved DNA left (log2) [5]	uncleaved DNA left (log2) [6]	uncleaved DNA left (log2) [7]	uncleaved DNA left (log2) [8]	uncleaved DNA left (log2) [9]
GGAATAG	0.0988	0.045	0.124	0.71	0.0291	-0.0657	0.26	0.093	0.181
GAGTGTC	0.129	0.148	0.346	0.679	0.0382	0.872	-1.92	0.158	0.0641
ATACGAG	-0.0453	0.0468	-0.148	0.275	0.0548	-0.781	0.0266	-0.0893	-0.0647
GGTGATT	-0.0643	0.0146	0.642	1.64	-0.0887	2.11	0.0918	-0.0588	0.0274
TCTGCTT	-0.196	-0.21	-0.279	-2.1	-0.178	-0.658	-0.207	-0.0744	-0.328
TTAACCT	-0.123	0.0764	-0.196	-2.52	0.042	-0.344	-1.15	0.129	0.0312
TTAGAAC	0.0226	-0.0319	0.127	-0.282	-0.0599	-0.248	0.0133	0.0446	0.0819
GGTTATA	0.116	0.0913	0.392	0.932	0.0346	1.83	0.0664	0.0373	0.184
CATCAAA	-0.000314	0.0963	0.0787	-0.0709	0.0504	-0.622	0.0612	0.0286	0.0757
AGTGCAT	0.01	0.0646	0.112	0.556	-0.124	0.415	-2.13	0.0225	0.0631
GCCATCG	0.0654	-0.0518	-0.73	-0.215	0.0679	-0.781	0.15	0.0968	-0.177
AATCCTG	-0.0239	-0.0372	-0.00942	0.407	0.00468	0.794	0.00269	-0.145	-0.00443
AGTCCTA	0.031	0.00915	0.263	0.0919	-0.0764	0.433	-1.01	-0.0136	0.107
ATATTAA	0.0439	0.0886	-0.0359	-0.339	0.0993	-0.754	0.114	0.0316	0.0905
TAGGTTT	0.0158	-0.0572	-0.414	-1.76	0.0339	1.47	-3.21	0.161	-0.105
AGCACGT	-0.0155	0.0134	0.0393	0.43	-0.0644	0.784	0.0179	-0.0772	-0.0313
TAGACAA	0.0848	0.0874	0.452	0.87	0.0647	1.12	0.0528	0.178	0.0654
TGGAGCT	0.101	-0.0233	0.194	0.0742	-0.0925	0.128	0.073	0.0318	0.103
TGCCTCG	0.064	-0.125	-0.612	-0.467	-0.00422	-1.1	-0.0239	-0.0619	-0.179
ACCCTAA	-0.213	-0.14	-0.21	-0.395	-0.0697	-0.569	0.0636	-0.222	-0.123
AAGTGGC	-0.00886	-0.0468	-0.426	-0.373	-0.0737	-0.927	-0.094	-0.0838	0.00856
CTCATCC	0.139	0.0221	0.021	-0.154	-0.0556	-0.557	-0.00721	0.0221	-0.0215
CTAGTCC	0.108	0.101	0.181	-0.102	0.0148	-0.0323	0.138	-0.0595	0.0812
AAACGCT	-0.0542	-0.0238	-0.961	-2.34	0.00864	-1.1	-0.121	-0.0189	-0.358
TTAGATA	0.123	0.0125	0.203	-0.959	0.0175	0.163	0.0807	0.019	0.0173
AGGAAGT	0.0799	0.0242	0.313	0.971	-0.0483	0.822	0.11	0.0125	0.125
CAGTCCT	-0.735	-2.88	-0.395	-2.74	-2.05	-0.42	-3.77	-0.0619	-0.0164
CGAGAAT	0.217	0.185	0.166	0.364	0.0557	0.433	-0.068	0.0724	0.138
